Measurements as given in US20220387487A1 (ALETA BIOTHERAPEUTICS, published 2022).

Columns and labels:
[1] = biological target: T1, CLL-1 (CLEC12A) on CLL-1 positive cell lines (U937, OCI-AML-5) (human, UniProt Q5QGZ9 1-265); experiment: cell-based or functional assay
T1 sequence: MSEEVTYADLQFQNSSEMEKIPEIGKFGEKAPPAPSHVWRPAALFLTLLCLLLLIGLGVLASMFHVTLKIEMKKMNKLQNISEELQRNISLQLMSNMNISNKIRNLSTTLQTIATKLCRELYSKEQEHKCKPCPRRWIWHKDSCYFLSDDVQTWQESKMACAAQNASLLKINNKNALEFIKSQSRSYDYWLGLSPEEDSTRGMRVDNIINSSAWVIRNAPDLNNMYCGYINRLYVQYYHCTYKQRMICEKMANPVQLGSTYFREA

[2] = biological target: T1, CLL-1 (CLEC12A) on CLL-1 positive cell …; experiment: flow cytometry on CLL-1 positive U937 cells, FMC63-PE detection
[3] = biological target: T1, CLL-1 (CLEC12A) on CLL-1 positive cell …; experiment: flow cytometry on U937 cells, purified fusion protein, a-His-PE detection, % Binding
[4] = biological target: T1, CLL-1 (CLEC12A) on CLL-1 positive cell …; experiment: flow cytometry on CLL-1 positive U937 cells, expressed fusion protein, detection with FMC63-PE, % Binding
[5] = biological target: T1, CLL-1 (CLEC12A) on CLL-1 positive cell …; experiment: cell-based or functional assay; remark: listed apart in the source

B1: CD19-anti-CLL-1 scFv (construct #186) (other)
chain: PEEPLVVKVEEGDNAVLQCLKGTSDGPTQQLTWSRESPLKPFLKLSLGLPGLGIHMRPLAIWLFIFNVSQQMGGFYLCQPGPPSEKAWQPGWTVNVEGSGELFRWNVSDLGGLGCGLKNRSSEGPSSPSGKLMSPKLYVWAKDRPEIWEGEPPCLPPRDSLNQSLSQDLTMAPGSTLWLSCGVPPDSVSRGPLSWTHVHPKGPKSLLSLELKDDRPARDMWVMETGLLLPRATAQDAGKYYCHRGNLTMSFHLEITARPGGGGSGGGGSGGGGSGGGGSDMAQVQLQESGPGLVKPSETLSLTCVVSGGSISSSNWWSWVRQPPGKGLEWIGEIYHSGSPDYNPSLKSRVTISVDKSRNQFSLKLSSVTAADTAVYYCAKVSTGGFFDYWGQGTLVTVSSGGGGSGGGGSGGGGSEIELTQSPSSLSASVGDRVTIT[about 80 residues left out]FGPGTKVEIKRTHHHHHH
notes: Fusion of wild type CD19 extracellular domain, linker, anti-CLL-1 (CLEC12A) scFv and His tag; also called scFv fusion protein
CLEC12A-cell cytotoxicity (IC50 n = 2-3) [1]: 0.1 nM | EC50 [2]: 10 nM | EC50 [3]: 1.83 µg/mL and 32.6 nM | EC50 [4]: 0.566 µg/mL

B2: anti-CLL-1 scFv-anti-CLL-1 VHH(2H3)-CD19 variant (construct #357) (other)
chain: DMAQVQLQESGPGLVKPSETLSLTCVVSGGSISSSNWWSWVRQPPGKGLEWIGEIYHSGSPDYNPSLKSRVTISVDKSRNQFSLKLSSVTAADTAVYYCAKVSTGGFFDYWGQGTLVTVSSGGGGSGGGGSGGGGSEIELTQSPSSLSASVGDRVTIT[about 80 residues left out]FGPGTKVEIKRTGGGGSGGGGSGGGGSGGGGSQVQLQESGGGLVQAGGSLRLSCVASGSIRSINVMGWYRQAPGKQRELVAACASDGNTYYADSVKGRFTISRDNAEKTVYLQMNNLKPDDTAVYYCDANSRGNYYSGQGTQVTVSSTSGPGGQGAGGGGSGGGGSGGGGSGGGGSPEEPLVVKVEEGDTAALWCLKGTSDGPTQQLTWSRESPLKPFLKYSLGVPGLGVHVRPDAISVVIRNVSQQMGGFYLCQPGPPSEKAWQPGWTVNVEGSGELFRWNVSDLGGLGCGLKNRSSEGPSSPSGKLMSPKLYVWAKDRPEIWEGEPPCLPPRDSLNQSLSRDLTVAPGSTLWLSCGVPPDSVSRGPLSWTHVHPKGPKSLLSLELKDDRPARDMWVMGTSLMLPRATAQDAGKWYCHRGNLTMSFHLEITARPSRHHHHHH
notes: Biparatopic fusion: anti-CLL-1 scFv, anti-CLL-1 VHH 2H3, CD19 variant, His tag; also called biparatopic fusion protein #357; HIS-tagged biparatopic construct
CAR-CD19 cytotoxicity relative to fusion protein #330, E:T 5:1 [5]: ~15 fold | CAR-CD19 cytotoxicity relative to fusion protein #330, third assay, E:T 5:1 [5]: ~15 fold | potency of killing relative to fusion protein #321 [5]: ~25 fold | potency of killing relative to fusion protein #330 [5]: ~8 fold | CLEC12A-cell cytotoxicity (IC50 n = 2-3) [1]: 0.00065 nM | EC50 [2]: 0.7 nM | EC50 [3]: 0.000219 µg/mL and 0.0031 nM | EC50 [4]: 0.0493 µg/mL

Several values for one entry are separate records, joined by “and”; a condition that tells them apart may be missing. Equal values may be shown once.
